The values below come from a collection of fitness landscapes (doi:10.1126/science.1257360).

This is one part of the list. A value given as a limit tells only on which side of the number the result lay.

B1: PhoQ; a variant is named by its letters at X, in order, P23837 (parent)
chain: MKKLLRLFFPLSLRVRFLLATAAVVLVLSLAYGMVALIGYSVSFDKTTFRLLRGESNLFYTLAKWENNKLHVELPENIDKQSPTMTLIYDENGQLLWAQRDVPWLMKMIQPDWLKSNGFHEIEADVNDTSLLLSGDHSIQQQLQEVREDDDDAEMTHSVAVNVYPATSRMPKLTIVVVDTIPVELKSSYMVWSWFIYVLSANLLLVIPLLWVAAWWSLRPIEALAKEVRELEEHNRELLNPATTRELTSLVRNLNRLLKSERERYDKYRTTLTDLTHSLKTPLXXLQXXLRSLRSEKMSVSDAEPVMLEQISRISQQIGYYLHRASMRGGTLLSRELHPVAPLLDNLTSALNKVYQRKGVNISLDISPEISFVGEQNDFVEVMGNVLDNACKYCLEFVEISARQTDEHLYIVVEDDGPGIPLSKREVIFDRGQRVDTLRPGQGVGLAVAREITEQYEGKIVAGESMLGGARMEVIFGRQHSAPKDE

In this assay the parent is B1. Put plainly: enrichment ratio after two sorts for PhoP signalling (ratio (wild type AVST 3.29)); higher = more functional. The following applies: with PhoP (E. coli).
GQER: the enrichment ratio was at most 0.25.

On to QVNL, for which the enrichment ratio was at most 0.25.

For the variant PPNM, the enrichment ratio was at most 0.25.

Turning to WLVG, the enrichment ratio was at most 0.25.

Turning to WMAV, the enrichment ratio is at most 0.25.

TLTD: the enrichment ratio was at most 0.25.

On to TYAH, for which the enrichment ratio turned out to be 0.357.

On to ISSH, for which the enrichment ratio was at most 0.25.

Consider LQVK, for which the enrichment ratio is at most 0.25.

As to IRRS, the enrichment ratio was at most 0.25.

DEMH: the enrichment ratio is at most 0.25.

For REPC, the enrichment ratio was at most 0.25.

In the case of GPVE, the enrichment ratio was at most 0.25.

With FRGI, the enrichment ratio is at most 0.25.

For QCNI, the enrichment ratio is at most 0.25.

Consider GCNP, for which the enrichment ratio is at most 0.25.

On to FTWW, for which the enrichment ratio is at most 0.25.

As for WDAR, the enrichment ratio is at most 0.25.

As to IIVK, the enrichment ratio is at most 0.25.

On to YALD, for which the enrichment ratio was at most 0.25.

VHYY: the enrichment ratio is at most 0.25.

For the variant KYTT, the enrichment ratio is at most 0.25.

RSIY: the enrichment ratio is at most 0.25.

With QRAT, the enrichment ratio was at most 0.25.

Take MTYR: the enrichment ratio was at most 0.25.

For the variant MSML, the enrichment ratio stood at 14.3.

Take QRNW: the enrichment ratio is at most 0.25.

For ANIF, the enrichment ratio is at most 0.25.

As for RLEC, the enrichment ratio was at most 0.25.

For PKHN, the enrichment ratio is at most 0.25.

With ATDR, the enrichment ratio was at most 0.25.

As to WVWG, the enrichment ratio is at most 0.25.

For the variant LYPH, the enrichment ratio was at most 0.25.

On to TDKC, for which the enrichment ratio was at most 0.25.

In the case of RHHW, the enrichment ratio was at most 0.25.

Turning to FCKQ, the enrichment ratio was at most 0.25.

Regarding NKRD, the enrichment ratio is at most 0.25.

As for TGNN, the enrichment ratio is 8.27.

For the variant RHGP, the enrichment ratio is at most 0.25.

Turning to GKAE, the enrichment ratio is at most 0.25.

As for GCFL, the enrichment ratio was at most 0.25.

Consider HCYR, for which the enrichment ratio was at most 0.25.

SINM: the enrichment ratio worked out at 1.07.

For RWHS, the enrichment ratio is at most 0.25.

For the variant QVNQ, the enrichment ratio was at most 0.25.

As for KHDW, the enrichment ratio was at most 0.25.

Consider RTDH, for which the enrichment ratio is at most 0.25.

On to MQMF, for which the enrichment ratio was at most 0.25.

Consider RDYH, for which the enrichment ratio was at most 0.25.

Take KQWM: the enrichment ratio is at most 0.25.

For QRVA, the enrichment ratio is at most 0.25.

With FHWM, the enrichment ratio was at most 0.25.

For the variant FSPI, the enrichment ratio is at most 0.25.

As to IDAV, the enrichment ratio is at most 0.25.

In the case of MNGS, the enrichment ratio was at most 0.25.

Take ANWD: the enrichment ratio was at most 0.25.

As for VGCA, the enrichment ratio is at most 0.25.

Take YHHL: the enrichment ratio was at most 0.25.

On to AWLH, for which the enrichment ratio was at most 0.25.

As to YFVH, the enrichment ratio turned out to be 0.389.

With NESI, the enrichment ratio was at most 0.25.

As to SRKP, the enrichment ratio is at most 0.25.

Turning to PCKP, the enrichment ratio is at most 0.25.

Consider AEPM, for which the enrichment ratio stood at 0.861.

IWMA: the enrichment ratio is at most 0.25.

As to QELH, the enrichment ratio is at most 0.25.

With NSCD, the enrichment ratio is at most 0.25.

For the variant RQFN, the enrichment ratio is at most 0.25.

With WHNY, the enrichment ratio is at most 0.25.

Turning to MQIK, the enrichment ratio was at most 0.25.

As for PYLN, the enrichment ratio was at most 0.25.

With WSNR, the enrichment ratio is at most 0.25.

Take HTSM: the enrichment ratio was at most 0.25.

As to GFDA, the enrichment ratio was at most 0.25.

As to MGPP, the enrichment ratio was at most 0.25.

Regarding LVLS, the enrichment ratio is at most 0.25.

Regarding WFII, the enrichment ratio is at most 0.25.

For the variant HHPY, the enrichment ratio is at most 0.25.

Consider TWNI, for which the enrichment ratio was at most 0.25.

Take MEWH: the enrichment ratio was 7.92.

In the case of EIYN, the enrichment ratio is at most 0.25.

In the case of SEFW, the enrichment ratio was at most 0.25.

KNVW: the enrichment ratio was at most 0.25.

SKLH: the enrichment ratio is 3.7.

TSVV: the enrichment ratio amounted to 3.8.

On to GHMI, for which the enrichment ratio is at most 0.25.

EFRY: the enrichment ratio is at most 0.25.

MNYG: the enrichment ratio was at most 0.25.

As for QIKA, the enrichment ratio was at most 0.25.

Take SMLS: the enrichment ratio came out at 6.78.

Turning to KDKS, the enrichment ratio is at most 0.25.

Consider NHTM, for which the enrichment ratio was at most 0.25.

Take KRQT: the enrichment ratio is at most 0.25.

On to FAVP, for which the enrichment ratio was at most 0.25.

Consider NAGV, for which the enrichment ratio is at most 0.25.

For the variant VILI, the enrichment ratio was 1.68.

For the variant DPLE, the enrichment ratio is at most 0.25.

For the variant GNGW, the enrichment ratio is at most 0.25.

QPSQ: the enrichment ratio was at most 0.25.

Take LCVL: the enrichment ratio was at most 0.25.

Consider IDYE, for which the enrichment ratio was at most 0.25.

For the variant DRHM, the enrichment ratio was at most 0.25.

Regarding GTGA, the enrichment ratio was at most 0.25.

For the variant DDVF, the enrichment ratio was at most 0.25.

For HMIK, the enrichment ratio was at most 0.25.

For the variant RFNR, the enrichment ratio was at most 0.25.

Turning to LSIY, the enrichment ratio was at most 0.25.

Take YSLF: the enrichment ratio came out at 3.76.

For KFFK, the enrichment ratio was at most 0.25.

For the variant PFSW, the enrichment ratio was at most 0.25.

Consider LRQP, for which the enrichment ratio was at most 0.25.

On to LKTA, for which the enrichment ratio was at most 0.25.

For MRVL, the enrichment ratio was at most 0.25.

WMGL: the enrichment ratio is at most 0.25.

With KLEA, the enrichment ratio was at most 0.25.

For the variant MKMC, the enrichment ratio was at most 0.25.

As to DQFH, the enrichment ratio was at most 0.25.

For the variant HHDQ, the enrichment ratio was at most 0.25.

DRHF: the enrichment ratio is at most 0.25.

Consider EVHP, for which the enrichment ratio is at most 0.25.

On to TPKS, for which the enrichment ratio was at most 0.25.

Take NNVE: the enrichment ratio is at most 0.25.

With VAIW, the enrichment ratio was at most 0.25.

Regarding RDMF, the enrichment ratio was at most 0.25.

In the case of PHDG, the enrichment ratio was at most 0.25.

Regarding RSLD, the enrichment ratio is at most 0.25.

Turning to FSDF, the enrichment ratio was at most 0.25.

As for QPRC, the enrichment ratio is at most 0.25.

Regarding VERS, the enrichment ratio was at most 0.25.

For GIHK, the enrichment ratio was at most 0.25.

Regarding AKKR, the enrichment ratio was at most 0.25.

Regarding WIKK, the enrichment ratio is at most 0.25.

In the case of PVPG, the enrichment ratio is at most 0.25.

Regarding GRTS, the enrichment ratio is at most 0.25.

In the case of RRDW, the enrichment ratio is at most 0.25.

On to GEIK, for which the enrichment ratio was at most 0.25.

In the case of SQPY, the enrichment ratio is at most 0.25.

With KVMH, the enrichment ratio is at most 0.25.

HARQ: the enrichment ratio was at most 0.25.

As to THEM, the enrichment ratio is at most 0.25.

VMDM: the enrichment ratio was at most 0.25.

TKLA: the enrichment ratio was 4.75.

QQMT: the enrichment ratio is at most 0.25.

As for HRMI, the enrichment ratio is at most 0.25.

With SYIM, the enrichment ratio is at most 0.25.

With ANKG, the enrichment ratio was at most 0.25.

In the case of YISW, the enrichment ratio stood at 0.368.

For the variant VDHL, the enrichment ratio is at most 0.25.

Turning to EDHS, the enrichment ratio was at most 0.25.

Consider TKPC, for which the enrichment ratio is at most 0.25.

As for VAGF, the enrichment ratio was at most 0.25.

Consider KPCA, for which the enrichment ratio is at most 0.25.

Turning to LHAL, the enrichment ratio was at most 0.25.
